From the RNAGym collection of RNA variant scans (doi:10.7554/elife.90254)
The source gives no read counts; variants with many changes may rest on few reads.

B1: LINE1-mini (parent)
chain: GGCAGAGCUCAACACAGCGUGGCAAAGUGGCUGUGGCUAGACUGCC

Variants of: B1
Assay: self-cleavage, relative activity (ratio to wild type); higher = more cleavage; in vitro, sequencing; the parent is a self-cleaving ribozyme

Row | Variant | self-cleavage
1 | GGCAGAGCUCAAGACAGCGUGGCAAAGUGCCUAUGGCUCGACUGCC | 0.11
2 | GGCAGAGCUCAAUACAGGGCGGCAAAGUGGCUGUGGCUAGACUGAC | 0.08
3 | GGCAGAGCUCAAUACAGCGUGGCUAAGUGGCUGUGGCUAUACUGCC | 0.12
4 | GGCAGAGCUCAAUACCGUGUGUCAAAGUGGCUGUGGCUAGAAUGCC | 0.03
5 | GGCAGAGCUCAAUCCAGCGUGGCAAUGUGGCUGUGGCUAGACUGCC | 0.01
6 | GGCAGAGCUCAAGACAGCGCGGCAAAGUGUCUGUGGGUAGGCUGCC | 0.01
7 | GGCAGAGCUCAAGACAGCGUGUCAAAGUGGCGGUGACUAGACUGCC | 0.26
8 | GGCAGAGCUCAAUACAUCUUGGCAAAGUGGCUGUGGCUAGACUGCC | 0.08
9 | GGCAGAGCUCAAGACAGCGUGGCAAAGUGGCUGUGGCUAAACCGCC | 0.1
10 | GGCAGAGCUCAAUAAAGCGUGGCAAAGUUGCUGUGGCUAGACUGCC | 0
11 | GGCAGAGCUCAAUACAGCGUGGCAUAGUGGCUGUGGCUGGACUGCC | 0.48
12 | GGCAGAGCUCAAUUCAGCGUGGCAAAGCGCUUGUCGCUAGACUGCU | 0.09
13 | GGCAGAGCUCAAUACAGCGUGGAAAAGUGGCUUUGGCUAGACUGCC | 0.09
14 | GGCAGAGCUCAAGACAGCGUGUCAUAGUGGCGGCGGGUAGACUGUC | 0.04
15 | GGCAGAGCUCAAGACAGCGUGGCAAAUUGGCUGUCGCUAGACUGCC | 0.49
16 | GGCAGAGCUCAAUCCAGUGUGGGAAAGUGGCUGUGGCUUGAGGGCC | 0.01
17 | GGCAGAGCUCAAUACAGCAUGGCAUGGUGGCUGUGGCUAGACUGAC | 0.03
18 | GGCAGAGCUCAAUACAGCGUGGCAAAGUGGCUGUGGAGAGACUGCC | 0.02
19 | GGCAGAGCUCAAUACAUCGUGGCAAAGUGGCAGUGGCUGGACGGCG | 0

Row | Variant | self-cleavage
20 | GGCAGAGCUCAAUAAAGCGUGGCAAAGAGGCUGUGGCUAGACUGCC | 0.04
21 | GGCAGAGCUCAAGACAGCGUGGCAAAGUUGCUGUGGCUGGACUGCC | 0.27
22 | GGCAGAGCUCAAGACAGCGUGGCAAAGUGGCCGUAGCCAGAAUGCC | 0.02
23 | GGCAGAGCUCAAGACAGCGUGGCAAACUGGCUGUGGCUAGACACCC | 0.07
24 | GGCAGAGCUCAAGACAGCGUGGCAAAGUGGCUGUAGAUCGACUGCC | 0.07
25 | GGCAGAGCUCAAUAAUGCGUGGCAAAGUGGCUGUGGCUAGUCUGCG | 0.05
26 | GGCAGAGCUCAAGACAGCGUGACAAAGUGGCUUUGGCUAGAGUGCC | 0.09
27 | GGCAGAGCUCAAUACAGCGUGGAAAAGUGGCUGCGGCUAGACUGCC | 0.05
28 | GGCAGAGCUCAAUACAGCGUGGCCAAGUCGCUGUGGCUAGACUGCC | 0.06
29 | GGCAGAGCUCAAUACAAAGUGGUAUAGUGGCUGUGGCUAAACUGCC | 0.04
30 | GGCAGAGCUCAAUACAGUGUGGCAAAGUGGCUGUGGCUAGACUGGC | 0.01
31 | GGCAGAGCUCAAUACCGCGUGGCAAAGUGGCAGUGGCUAGUCUGCC | 0.02
32 | GGCAGAGCUCAAUACACCGUGGGAAAGUGGGUGUGGCUAGAUUGCC | 0.03
33 | GGCAGAGCUCAAUACAGCGUGGCAAAGUGGCUGUGGCUGGACUCCC | 0.07
34 | GGCAGAGCUCAAGACAGCGUGACCAAGUGGCUGAGGCUAGACUGGC | 0
35 | GGCAGAGCUCAAUACAGCGUGGUAAACUGGCUGUGGCUAGACUGCC | 0.02
36 | GGCAGAGCUCAAUACAGCGUGGUAAAGUCGCUGUGGCUAGACUGCC | 0.1
37 | GGCAGAGCUCAAGACAGCGUGGCAAAGUGGCUGAGGAUAGACUGCC | 0.03
38 | GGCAGAGCUCAAUACAGCGUGGCUAAGUGGCUGGGGCUAGACUGCC | 0.03

Row | Variant | self-cleavage
39 | GGCAGAGCUCAAGACAGCGUGGCAAAGAGGCUAUGACUAGACUGCC | 0.02
40 | GGCAGAGCUCAAUAUAGCGUGGUAAAGUGGCUGUGGCUAGACUGCC | 0.38
41 | GGCAGAGCUCAAUAUAGCGUGGCAAAGUGGCUGGGGCUUGCCUGCC | 0.12
42 | GGCAGAGCUCAAGACAGCGUGGCAAAGCGGCUGUGGCUAUACUGCU | 0.02
43 | GGCAGAGCUCAAUACCGCGUGGCAUAGUGACUUUGGCUAGACUGCU | 0.04
44 | GGCAGAGCUCAAGACAGCGUGGCAAAGUGGCUGUGGCUACACUGUC | 0.12
45 | GGCAGAGCUCAAGACAGCGUGGCAAAGUGGCUGAGGCUAGACUCCC | 0.07
46 | GGCAGAGCUCAAGACAGCGUGCCAACGUGGCUGUGGCUAGACUGCC | 0.32
47 | GGCAGAGCUCAAUACAGCGUGGCAAAGUGGUUGUGUCUAGACUGCC | 0.01
48 | GGCAGAGCUCAAUACAGCGUGGCCAAGUCGCUGUGUCUAGACUGCC | 0.06
49 | GGCAGAGCUCAAUUCAGCUUGGCAAAGUGGCUGUGGCUAGACUGCC | 0.54
50 | GGCAGAGCUCAAUACAGCGUGGGAAAUUGGCUGUGGCUAUACUGCC | 0.12
51 | GGCAGAGCUCAAUACAGCCUGGAAAAGUGGCUGUGGCUAGACUGAC | 1.35
52 | GGCAGAGCUCAAUACAGCGUGGCAACGUGGCUGUGGCUAGAACGCC | 0.05
53 | GGCAGAGCUCAAUAUCGCGUGGCAAAGUGGGUGUGGCUAGACUGCC | 0.13
54 | GGCAGAGCUCAAUACAGCGUGGCAAUGUGGCGGUAGCUAGACUGCC | 0.07
55 | GGCAGAGCUCAAGACAGCGCGGCAAAGUGGCUGUAGCUAGAGUGCC | 0.04
56 | GGCAGAGCUCAAUACAGCGUGGCAAGGUGGCUGUGGCUAGAGUGCC | 0.05
